In US20250282874A1 (SUZHOU TRANSCENTA THERAPEUTICS, published 2025):
Changes are numbered by the printed parent chain. Where two headings read alike, the source gives them in different places. One block for each binder: values may come before it.

Experiments:
[1] = target: T1, human PD-L1 expressed on cells (human, UniProt Q9NZQ7); experiment: cell-based or functional assay
[2] = target: human IL-1R on HEK293-CD40L reporter cells (human); experiment: cell-based or functional assay
[3] = target: T2, hPD-L1 (Acro Biosystems, PD1-H5229) (human, UniProt Q9NZQ7 fragment); experiment: ELISA, hPD-L1 coated, anti-human Fc-HRP, OD450
T2 construct: also called human PD-L1; hPD-L1 protein

[4] = target: T1, human PD-L1 expressed on cells; experiment: flow cytometry on 293T-PD-L1-CD3L cells, PE anti-human IgG, Mean PE-A
T1 sequence (Q9NZQ7 19-290): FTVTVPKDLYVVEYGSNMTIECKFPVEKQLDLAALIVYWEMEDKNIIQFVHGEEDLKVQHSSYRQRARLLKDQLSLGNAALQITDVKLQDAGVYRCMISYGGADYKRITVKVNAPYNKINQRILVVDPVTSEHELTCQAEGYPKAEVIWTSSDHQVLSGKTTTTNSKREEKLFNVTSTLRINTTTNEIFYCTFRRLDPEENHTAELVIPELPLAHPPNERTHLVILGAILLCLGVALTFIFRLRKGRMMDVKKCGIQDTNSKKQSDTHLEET

[5] = target: T3, Human IL-1RI-his (Sino Biological, Cat #10126-H08H) (human, UniProt P14778 18-332); experiment: competition ELISA, human IL-1β coated, Human IL-1RI-his added with the titrated sample, anti-His-HRP, OD450
T3 construct: not shown: His tag
T3 sequence (looked up): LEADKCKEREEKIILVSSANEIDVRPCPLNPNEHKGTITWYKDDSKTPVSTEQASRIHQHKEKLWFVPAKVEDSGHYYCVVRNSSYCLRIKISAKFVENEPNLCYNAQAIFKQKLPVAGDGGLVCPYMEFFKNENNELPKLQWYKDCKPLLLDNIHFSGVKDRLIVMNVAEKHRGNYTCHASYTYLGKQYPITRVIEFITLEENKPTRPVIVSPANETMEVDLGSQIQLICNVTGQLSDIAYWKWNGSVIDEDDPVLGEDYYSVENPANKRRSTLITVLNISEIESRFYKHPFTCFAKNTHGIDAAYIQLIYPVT

[6] = target: T1, human PD-L1 expressed on cells; experiment: cell-based or functional assay; remark: listed apart in the source
[7] = target: T2, hPD-L1 (Acro Biosystems, PD1-H5229); experiment: ELISA, hPD-L1 coated, anti-human Fc-HRP, OD450; remark: listed apart in the source
T2 sequence (Q9NZQ7 19-238 limits assumed): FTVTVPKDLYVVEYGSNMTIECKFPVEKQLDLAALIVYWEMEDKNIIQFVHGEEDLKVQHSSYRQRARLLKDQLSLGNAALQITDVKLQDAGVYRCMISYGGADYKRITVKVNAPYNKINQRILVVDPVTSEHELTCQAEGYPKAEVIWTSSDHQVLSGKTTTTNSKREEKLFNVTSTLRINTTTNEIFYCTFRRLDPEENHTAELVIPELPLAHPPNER

human PD-L1-His = target: T4, human PD-L1-His (human, UniProt Q9NZQ7 fragment, limits assumed); experiment: SPR (Biacore); fusion on Protein A chip, PD-L1 his as analyte
Sequence of human PD-L1-His (Q9NZQ7 19-238 limits assumed): as above
T4 construct: not shown: His tag

[8] = target: T2, hPD-L1 (Acro Biosystems, PD1-H5229); experiment: ELISA, hPD-L1 coated, anti-human Fc-HRP, OD450; remark: listed apart in the source
human PD-L1-Fc = target: T5, human PD-L1-Fc (human, UniProt Q9NZQ7 fragment); experiment: competition ELISA, hPD-L1-Fc coated; blocked ligand B7-1, OD450
Sequence of human PD-L1-Fc (Q9NZQ7 19-239 limits assumed): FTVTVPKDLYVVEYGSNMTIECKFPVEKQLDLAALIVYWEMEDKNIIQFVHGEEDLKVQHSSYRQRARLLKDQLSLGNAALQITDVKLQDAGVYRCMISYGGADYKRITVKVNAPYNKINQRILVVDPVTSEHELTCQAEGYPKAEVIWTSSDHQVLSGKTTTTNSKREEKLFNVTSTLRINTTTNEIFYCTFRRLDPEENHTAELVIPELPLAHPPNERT
T5 construct: also called hPD-L1-Fc; human PD-L1-Fc (Sino Biological, 70110-D02H); not shown: Fc part

EC50 (read off the curve) [8]: ~0.6 nM
B4: AM-4B6-hIgG1-TGFβRII variant 8 (other)
heavy: QVQLVQSGAEVKKPGASVKVSCKASGYVFTDYYMNWVRQAPGQSLEWMGDINPNNAETLYNHKFKGRVTVTVDKSISTAYMELSRLRSDDTAVYYCVKWGDGPFAYWGQGTLVTVSS[human IgG1 constant region omitted here]GGGGSGGGGSGGGGSGGGGSGTIPPHVQKSVNNDMIVTDNNGAVKFPQLCKFCDVRFSTCDNQKSCMSNCSITSICEKPQEVCVAVWRKNDENITLETVCHDPKLPYHDFILEDAASPKCIMKEKKKPGETFFMCSCSSDECNDNIIFSEEYNTSNPD
light: DIQMTQSPSSLSASVGDRVTITCKASQNVGAAVAWYQQKPGKAPKLLIYSRSVRYTGVPSRFSGSGSGTDFTLTISSLQPEDIATYYCQQYSNYPTFGQGTKLEIKRTVAAPSVFIFPPSDEQLKSGTASVVCLLNNFYPREAKVQWKVDNALQSGNSQESVTEQDSKDSTYSLSSTLTLSKADYEKHKVYACEVTHQGLSSPVTKSFNRGEC

EC50 (read off the curve) [7]: ~0.4 nM
B5: AM-4B6-hIgG1-TGFβRII variant 9 (other)
heavy: B4 heavy with E57Q, L59V
light: B4 light with G30K, A31G, R51A, V53N

EC50, NFAT-luciferase luminescence, 293T-PD-L1-CD3L cells with Jurkat-NFAT-Luc-PD1 cells [6]: 0.711 nM
EC50 (read off the curve) [8]: ~0.6 nM
Kd (human PD-L1-His): 0.388 nM
koff (human PD-L1-His): 0.000148 s⁻¹
kon (human PD-L1-His): 382000 M⁻¹ s⁻¹
IC50 (human PD-L1-Fc): 1.19 nM
B6: AM-4B6-hIgG1-TGFβRII variant 7 (other)
heavy: B4 heavy
light: B4 light with R51V, V53D

EC50 (read off the curve) [7]: ~0.4 nM
B8: AM-4B6-hIgG1-TGFβRII variant 12 (other)
heavy: B4 heavy with E57Q, L59V
light: B4 light

EC50, NFAT-luciferase luminescence, 293T-PD-L1-CD3L cells with Jurkat-NFAT-Luc-PD1 cells [6]: 0.893 nM
EC50 (read off the curve) [7]: ~0.4 nM
Kd (human PD-L1-His): 0.508 nM
koff (human PD-L1-His): 0.000137 s⁻¹
kon (human PD-L1-His): 269000 M⁻¹ s⁻¹
B10: AM-4B6-hIgG1-TGFβRII variant 11 (other)
heavy: B4 heavy with E57Q, L59V
light: B4 light with R51V, V53D

More lines, now with the values behind:

B1: AM4B6-hIgG1-IL-1RA (other)
heavy: QVQLVQSGAEVKKPGASVKVSCKASGYVFTDYYMNWVRQAPGQSLEWMGDINPNNAETLYNHKFKGRVTVTVDKSISTAYMELSRLRSDDTAVYYCVKWGDGPFAYWGQGTLVTVSS[human IgG1 constant region omitted here]GGGGSGGGGSGGGGSGGGGSGKMQAFRIWDVNQKTFYLRNNQLVAGYLQGPNVNLEEKIDVVPIEPHALFLGIHGGKMCLSCVKSGDETRLQLEAVNITDLSENRKQDKRFAFIRSDSGPTTSFESAACPGWFLCTAMEADQPVSLTNMPDEGVMVTKFYFQEDE
light: B4 light with R51V, V53D
notes: Bi-functional fusion of AM4B6 IgG1 with IL-1RA (34-177) on the heavy chain C-terminus; also called AM4B6-hIgG1-IL-1RA (34-177); AM4B6-hIgG1-IL-1RA BsAb
IC50 (so in the source), NFAT-luciferase luminescence, 293T-PD-L1-CD3L cells with Jurkat-NFAT-Luc-PD1 cells [1]: 1.23 nM
IC50, SEAP at OD 620 nm, HEK-Blue CD40L reporter cells stimulated with human IL-1β [2]: 0.0434 nM
EC50 [3]: 0.0815 nM
EC50 [4]: 1.15 nM
IC50 [5]: 5.95 nM

B2: AM-4B6-hIgG1-TGFβRII variant 10 (other)
heavy: B4 heavy with E57Q, L59V
light: B4 light with G30P, R51A, V53N
EC50, NFAT-luciferase luminescence, 293T-PD-L1-CD3L cells with Jurkat-NFAT-Luc-PD1 cells [6]: 1.2 nM
EC50 (read off the curve) [7]: ~0.4 nM
Kd (human PD-L1-His): 0.604 nM
koff (human PD-L1-His): 0.000148 s⁻¹
kon (human PD-L1-His): 244000 M⁻¹ s⁻¹

B3: AM-4B6-hIgG1-TGFβRII variant 2 (other)
heavy: B4 heavy with E57Q, L59Q
light: B4 light with G30P, R51A, V53N
EC50, NFAT-luciferase luminescence, 293T-PD-L1-CD3L cells with Jurkat-NFAT-Luc-PD1 cells [6]: 0.868 nM
Kd (human PD-L1-His): 0.519 nM
koff (human PD-L1-His): 0.000168 s⁻¹
kon (human PD-L1-His): 323000 M⁻¹ s⁻¹

B7: AM-4B6-hIgG1-TGFβRII variant 6 (other)
heavy: B4 heavy
light: B4 light with G30P, R51A, V53N
EC50 (read off the curve) [8]: ~0.6 nM

B9: AM-4B6-hIgG1-TGFβRII variant 5 (other)
heavy: B4 heavy
light: B4 light with G30K, A31G, R51A, V53N
EC50, NFAT-luciferase luminescence, 293T-PD-L1-CD3L cells with Jurkat-NFAT-Luc-PD1 cells [6]: 1.07 nM
EC50 (read off the curve) [8]: ~0.6 nM
Kd (human PD-L1-His): 0.722 nM
koff (human PD-L1-His): 0.000149 s⁻¹
kon (human PD-L1-His): 206000 M⁻¹ s⁻¹
